# Data taken from the supplement of paper PMC4166925.
# ± gives the standard deviation of the averaged measurements. In all, about 33,000 sequences were measured (“E-score (dimensionless, -0.5 to 0.5)”: median about -0.046, highest 2% from about 0.36 on). The list shows a part of the results.
# Tested on: T1, SpTbr T-box DNA-binding domain (GST fusion)
# T1 sequence: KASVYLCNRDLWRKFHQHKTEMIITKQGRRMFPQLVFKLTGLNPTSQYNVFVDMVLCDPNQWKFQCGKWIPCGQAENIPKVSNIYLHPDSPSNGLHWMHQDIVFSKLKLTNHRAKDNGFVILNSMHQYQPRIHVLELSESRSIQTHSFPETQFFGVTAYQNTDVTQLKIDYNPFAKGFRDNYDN
# Experiment: PBM E-score of 8-mer (E-score (dimensionless, -0.5 to 0.5)); Tbr is Tbrain of the sea star Patiria miniata (Pm) or the sea urchin Strongylocentrotus purpuratus (Sp); higher = stronger binding preference; most listed sequences are background and not binding sites
# Settings: the construct has about 5 more residues each side
# Outline: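 Each ungapped 8-mer received an enrichment E-score from the Universal PBM Analysis Suite, averaged over duplicate arrays. The proteins were Tbr T-box DNA-binding domains, covering the whole T-box plus about five flanking residues, fused to GST and expressed in BL21 E. coli at 20 °C before glutathione affinity purification. Universal Agilent oligonucleotide arrays were made double-stranded by primer extension and incubated with 200 nM protein in PBS (pH 7.5). The arrays were then scanned and quantified, and every 8-mer was scored from probe intensities.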
row,Sequence,PBM E-score of 8-mer
1,AAGGTTTA,-0.14 ± 0.011
2,ACATACCC,-0.125 ± 0.037
3,GCAAAGGA,-0.137 ± 0.023
4,ATCAACTA,0.00344 ± 0.03
5,ATATTCCC,-0.0234 ± 0.015
6,GAATTGCC,0.0106 ± 0.041
7,GACCAACC,-0.166 ± 0.066
8,AAAGCAGA,-0.125 ± 0.033
9,CAAGAGGA,0.00677 ± 0.073
10,ATACAGAA,-0.0731 ± 0.052
11,CATGGCGG,-0.194 ± 0.045
12,CCGTGGCG,0.0364 ± 0.062
13,CCTTAAAG,-0.14 ± 0.083
14,AGCTGGTG,0.0589 ± 0.13
15,CATTTAGG,-0.124 ± 0.024
16,GCTTCGGA,-0.151 ± 0.019
17,GATTATGA,-0.122 ± 0.0078
18,CAAGTTCA,0.184 ± 0.021
19,CCGTTCGA,-0.145 ± 0.12
20,CGCGGCTC,0.218 ± 0.0081
21,CTGCAGAA,-0.137 ± 0.0057
22,CAGATGCA,-0.0647 ± 0.047
23,AACCACGA,0.0606 ± 0.04
24,CATAACCC,-0.235 ± 0.028
25,CTTGCAAA,0.0819 ± 0.029

row,Sequence,PBM E-score of 8-mer
1,GAATTGTA,-0.0667 ± 0.074
2,AGAAACAA,-0.113 ± 0.068
3,ACATTAAG,-0.139 ± 0.1
4,CCCGCCGA,-0.185 ± 0.14
5,ACCGGTTA,-0.0221 ± 0.0009
6,GTTGGGTA,-0.1908 ± 0.0016
7,GGAGGCTA,-0.213 ± 0.011
8,CCCAAGGC,-0.0975 ± 0.08
9,ATAATCGC,0.0913 ± 0.063
10,GTGTTATA,0.4 ± 0.034
11,CCAAAAAG,-0.148 ± 0.0032
12,ACCACGGG,0.0545 ± 0.0064
13,AATTTTAC,-0.131 ± 0.087
14,AATTAGCT,-0.0837 ± 0.018
15,GCCCCCCC,-0.255 ± 0.053
16,CTGCGGAA,-0.19 ± 0.043
17,AGCGCGAA,0.405 ± 0.019
18,GATATTCA,-0.0962 ± 0.058
19,TCCTTGAA,-0.29 ± 0.038
20,AGGGTTCG,-0.0552 ± 0.012
21,TATTGACA,0.278 ± 0.019
22,ACGGATAT,-0.181 ± 0.01
23,CCAGGTCC,-0.113 ± 0.031
24,CTCTCACC,0.38 ± 0.021
25,ACAGCCCT,-0.109 ± 0.054

row,Sequence,PBM E-score of 8-mer
1,CGACATCG,0.0463 ± 0.043
2,GTTATCTA,0.0706 ± 0.0013
3,GACCAGCA,-0.126 ± 0.021
4,AACACCGT,0.243 ± 0.091
5,CCCTCTTA,-0.0837 ± 0.0085
6,AAGGCTTG,-0.15 ± 0.021
7,CAACGTAC,-0.00945 ± 0.021
8,CGATAGCG,0.219 ± 0.009
9,CCAGCGGA,-0.0913 ± 0.043
10,ACTAAATA,-0.131 ± 0.019
11,ACGCATGC,-0.136 ± 0.041
12,CTATAATA,-0.22 ± 0.028
13,AGGGGTAT,-0.258 ± 0.084
14,CAAGCATA,-0.233 ± 0.018
15,GTCGCGGA,0.102 ± 0.055
16,AACATAGC,0.112 ± 0.0027
17,CACATCCA,0.268 ± 0.046
18,GCATAGGC,-0.219 ± 0.021
19,ACAACACT,0.345 ± 0.0051
20,CCAAATAC,-0.0967 ± 0.0038
21,ACGCCGTA,-0.0348 ± 0.0028
22,GGATGTTA,-0.0817 ± 0.033
23,CTCGGAAA,-0.132 ± 0.012
24,CTTGCAGA,-0.212 ± 0.082
25,GTAAAAGA,0.113 ± 0.045

row,Sequence,PBM E-score of 8-mer
1,ACCAAAGT,0.0243 ± 0.011
2,AACCAGTG,-0.00855 ± 0.045
3,CGAAGCAG,-0.114 ± 0.076
4,TTCCTCAA,-0.206 ± 0.082
5,ACAGCTGG,-0.00023 ± 0.086
6,GAAAGCGC,0.145 ± 0.048
7,GAACCTTC,-0.0942 ± 0.03
8,CCTAGACG,0.0153 ± 0.025
9,CTAATTTA,-0.154 ± 0.054
10,CACTGCAG,0.16 ± 0.011
11,AGATTCGC,0.1 ± 0.037
12,ATACCACG,-0.0212 ± 0.022
13,ATGGCGTG,0.138 ± 0.036
14,CGTGTACA,0.101 ± 0.0036
15,CACTTTAA,0.196 ± 0.064
16,CCGCCGCG,-0.00953 ± 0.015
17,ATCCTTTG,-0.247 ± 0.0049
18,ACCTTTTA,0.11 ± 0.0059
19,GATCGGCC,-0.185 ± 0.055
20,GTATGCAC,0.0616 ± 0.043
21,CACTTTTC,0.24 ± 0.025
22,ATGCCCGG,-0.0547 ± 0.0029
23,AAAATCCT,-0.228 ± 0.048
24,CCTGGATA,-0.0934 ± 0.048
25,ACCAGCTC,-0.0336 ± 0.0079

row,Sequence,PBM E-score of 8-mer
1,CGTCAACG,0.321 ± 0.0043
2,ACATCGCG,0.275 ± 0.034
3,TAAGTTAA,-0.102 ± 0.091
4,GATTGTGC,0.109 ± 0.006
5,CCTGCCGC,0.0182 ± 0.0095
6,TCGGTAAA,-0.0749 ± 0.016
7,ACTGACGA,-0.0709 ± 0.038
8,AGATACTC,-0.282 ± 0.035
9,AGTCTCCG,-0.19 ± 0.036
10,GCTGCCAC,0.178 ± 0.059
11,AAGGACAT,-0.00571 ± 0.042
12,GAAAAATA,-0.246 ± 0.077
13,GAGTACTC,-0.103 ± 0.11
14,GCAGTGTA,-0.129 ± 0.086
15,AACACTCA,0.31 ± 0.0041
16,AGGAGCCA,-0.00757 ± 0.016
17,TGGTGGAA,-0.0461 ± 0.00048
18,ACAGGCCG,-0.0254 ± 0.015
19,ATTTCTTG,-0.098 ± 0.035
20,GACGCAAC,0.128 ± 0.031
21,AAGTCCAT,-0.184 ± 0.035
22,ACAAGGTC,0.202 ± 0.026
23,ATCCATCC,-0.195 ± 0.019
24,GTAAGCCA,-0.199 ± 0.076
25,CATCATGC,-0.137 ± 0.03

row,Sequence,PBM E-score of 8-mer
1,AAGCGGAA,0.0108 ± 0.08
2,GCACTTCA,0.31 ± 0.032
3,TCTGAAAA,-0.27 ± 0.062
4,CATATAAA,-0.255 ± 0.0066
5,GAGCCACC,-0.0718 ± 0.02
6,ATGCAAAA,-0.285 ± 0.068
7,CATCACCG,-0.145 ± 0.11
8,CGGATCTC,-0.229 ± 0.027
9,CCTCGAAC,0.0681 ± 0.055
10,CTCTCGGA,-0.165 ± 0.012
11,CATTATGC,-0.168 ± 0.011
12,CCCATATA,-0.307 ± 0.014
13,GGGACACA,0.0277 ± 0.035
14,AGTGAAAC,0.0121 ± 0.054
15,CCCATCCG,-0.166 ± 0.027
16,ATATTCTC,-0.0643 ± 0.031
17,CATATGAC,-0.0145 ± 0.039
18,GAGTTACA,0.0163 ± 0.064
19,AGTTCACG,0.338 ± 0.049
20,CCTGGCGC,0.273 ± 0.0081
21,CCGACAAA,0.0247 ± 0.0091
22,CCGAGAAG,-0.00438 ± 0.03
23,CAACTCCC,-0.0195 ± 0.00078
24,CGCTTCGC,0.32 ± 0.039
25,AAGTTCAC,0.179 ± 0.052

row,Sequence,PBM E-score of 8-mer
1,CGGTGAGC,0.0357 ± 0.021
2,ATAGTGTC,0.272 ± 0.07
3,CGCAAGTA,0.164 ± 0.014
4,AACCGAAC,-0.157 ± 0.024
5,CCGCTCGA,-0.129 ± 0.018
6,CCTGTCTA,-0.164 ± 0.019
7,AATGGACA,-0.0107 ± 0.054
8,GCGGAGAA,0.059 ± 0.053
9,TGTTATAA,0.21 ± 0.085
10,ATTCACGG,0.259 ± 0.00064
11,GTTAAGAA,0.0677 ± 0.082
12,AGCTAGTG,0.109 ± 0.038
13,CCTCGTGA,0.122 ± 0.019
14,AACCCAAT,-0.307 ± 0.013
15,CAACCCAC,0.0871 ± 0.05
16,CCCTGTAC,-0.0689 ± 0.075
17,AACACTTC,0.407 ± 0.0093
18,ACCACCCT,0.0155 ± 0.074
19,ATCGGCAC,0.138 ± 0.013
20,CTATGGGC,-0.182 ± 0.008
21,CCCCGCGC,0.0261 ± 0.1
22,GCCCGGGA,-0.206 ± 0.098
